{"source": "paper PMC12820563", "note": "The other results are listed elsewhere or left out. The list includes weakly bound sequences."}
{"target": "T1, MBP-FoxP3dN (UniProt Q99JB6)", "T1 sequence": "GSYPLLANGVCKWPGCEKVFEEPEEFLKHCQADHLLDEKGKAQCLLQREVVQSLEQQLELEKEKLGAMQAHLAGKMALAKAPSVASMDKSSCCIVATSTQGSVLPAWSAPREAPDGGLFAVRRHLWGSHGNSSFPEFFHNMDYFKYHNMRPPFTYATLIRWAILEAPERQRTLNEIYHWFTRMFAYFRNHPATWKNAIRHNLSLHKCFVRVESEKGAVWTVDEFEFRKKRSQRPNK", "assay": "PD-seq (MBP pull-down with sequencing)", "conditions": "20 mM Tris-HCl pH 7.5, 100 mM NaCl, 1.5 mM MgCl2, 0.4 uM protein, 0.1 uM dsDNA library, 30 min, room temperature, amylose pull-down; high values mean tight binding; double strand, one strand shown"}
{"sequence": "GATGATTGTTCTCCCAGCTGATGAATTAGCGCCATCGAGTAAACAAATTTTCCTAATCTTTCTGTTCAAGCGCCATCTAC", "binding signal (RPM ratio (pull-down/input))": 2.85}
{"sequence": "GATGATTGTTCTCCCAGCTGATGAATTAAAACGTTCGAGTAAACAAATTTTCCTAATCTTTCTGTTCAAGCGCCATCTAC", "binding signal (RPM ratio (pull-down/input))": 0.327}
{"sequence": "GATGATTGTTCTCCCAGCTGATGAATTACCCATATCGAGTAAACAAATTTTCCTAATCTTTCTGTTCAAGCGCCATCTAC", "binding signal (RPM ratio (pull-down/input))": 0.392}
{"sequence": "GATGATTGTTCTCCCAGCTGATGAATTCGACATGTCGAGTAAACAAATTTTCCTAATCTTTCTGTTCAAGCGCCATCTAC", "binding signal (RPM ratio (pull-down/input))": 0.986}
{"sequence": "GATGATTGTTCTCCCAGCTGATGAATTCGACTCCTCGAGTAAACAAATTTTCCTAATCTTTCTGTTCAAGCGCCATCTAC", "binding signal (RPM ratio (pull-down/input))": 0.506}
{"sequence": "GATGATTGTTCTCCCAGCTGATGAATTACCCGTGTCGAGTAAACAAATTTTCCTAATCTTTCTGTTCAAGCGCCATCTAC", "binding signal (RPM ratio (pull-down/input))": 0.311}
{"sequence": "GATGATTGTTCTCCCAGCTGATGAATTGAGGCAATCGAGTAAACAAATTTTCCTAATCTTTCTGTTCAAGCGCCATCTAC", "binding signal (RPM ratio (pull-down/input))": 2}
{"sequence": "GATGATTGTTCTCCCAGCTGATGAATTTTGATGCTCGAGTAAACAAATTTTCCTAATCTTTCTGTTCAAGCGCCATCTAC", "binding signal (RPM ratio (pull-down/input))": 1.44}
{"sequence": "GATGATTGTTCTCCCAGCTGATGAATTAAGTACGTCGAGTAAACAAATTTTCCTAATCTTTCTGTTCAAGCGCCATCTAC", "binding signal (RPM ratio (pull-down/input))": 0.451}
{"sequence": "GATGATTGTTCTCCCAGCTGATGAATTTCTTGGATCGAGTAAACAAATTTTCCTAATCTTTCTGTTCAAGCGCCATCTAC", "binding signal (RPM ratio (pull-down/input))": 0.195}
{"sequence": "GATGATTGTTCTCCCAGCTGATGAATTGTTACGGTCGAGTAAACAAATTTTCCTAATCTTTCTGTTCAAGCGCCATCTAC", "binding signal (RPM ratio (pull-down/input))": 0.947}
{"sequence": "GATGATTGTTCTCCCAGCTGATGAATTTCCTAAATCGAGTAAACAAATTTTCCTAATCTTTCTGTTCAAGCGCCATCTAC", "binding signal (RPM ratio (pull-down/input))": 0.188}
{"sequence": "GATGATTGTTCTCCCAGCTGATGAATTAAGTTGCTCGAGTAAACAAATTTTCCTAATCTTTCTGTTCAAGCGCCATCTAC", "binding signal (RPM ratio (pull-down/input))": 1.63}
{"sequence": "GATGATTGTTCTCCCAGCTGATGAATTCGGGGAATCGAGTAAACAAATTTTCCTAATCTTTCTGTTCAAGCGCCATCTAC", "binding signal (RPM ratio (pull-down/input))": 0.248}
{"sequence": "GATGATTGTTCTCCCAGCTGATGAATTATGCCTCTCGAGTAAACAAATTTTCCTAATCTTTCTGTTCAAGCGCCATCTAC", "binding signal (RPM ratio (pull-down/input))": 6.22}
{"sequence": "GATGATTGTTCTCCCAGCTGATGAATTATCCCAATCGAGTAAACAAATTTTCCTAATCTTTCTGTTCAAGCGCCATCTAC", "binding signal (RPM ratio (pull-down/input))": 0.311}
{"sequence": "GATGATTGTTCTCCCAGCTGATGAATTGCTTCTGTCGAGTAAACAAATTTTCCTAATCTTTCTGTTCAAGCGCCATCTAC", "binding signal (RPM ratio (pull-down/input))": 0.468}
{"sequence": "GATGATTGTTCTCCCAGCTGATGAATTGATTCGATCGAGTAAACAAATTTTCCTAATCTTTCTGTTCAAGCGCCATCTAC", "binding signal (RPM ratio (pull-down/input))": 0.315}
{"sequence": "GATGATTGTTCTCCCAGCTGATGAATTGTGCTGCTCGAGTAAACAAATTTTCCTAATCTTTCTGTTCAAGCGCCATCTAC", "binding signal (RPM ratio (pull-down/input))": 1.11}
{"sequence": "GATGATTGTTCTCCCAGCTGATGAATTCGCAGCGTCGAGTAAACAAATTTTCCTAATCTTTCTGTTCAAGCGCCATCTAC", "binding signal (RPM ratio (pull-down/input))": 0.613}
{"sequence": "GATGATTGTTCTCCCAGCTGATGAATTTCCAACCTCGAGTAAACAAATTTTCCTAATCTTTCTGTTCAAGCGCCATCTAC", "binding signal (RPM ratio (pull-down/input))": 0.248}
{"sequence": "GATGATTGTTCTCCCAGCTGATGAATTATTACCGTCGAGTAAACAAATTTTCCTAATCTTTCTGTTCAAGCGCCATCTAC", "binding signal (RPM ratio (pull-down/input))": 0.358}
{"sequence": "GATGATTGTTCTCCCAGCTGATGAATTCCCAGCGTCGAGTAAACAAATTTTCCTAATCTTTCTGTTCAAGCGCCATCTAC", "binding signal (RPM ratio (pull-down/input))": 0.371}
{"sequence": "GATGATTGTTCTCCCAGCTGATGAATTCGGCCGGTCGAGTAAACAAATTTTCCTAATCTTTCTGTTCAAGCGCCATCTAC", "binding signal (RPM ratio (pull-down/input))": 0.43}
{"sequence": "GATGATTGTTCTCCCAGCTGATGAATTTTTAAGTTCGAGTAAACAAATTTTCCTAATCTTTCTGTTCAAGCGCCATCTAC", "binding signal (RPM ratio (pull-down/input))": 0.226}
{"sequence": "GATGATTGTTCTCCCAGCTGATGAATTCTCACACTCGAGTAAACAAATTTTCCTAATCTTTCTGTTCAAGCGCCATCTAC", "binding signal (RPM ratio (pull-down/input))": 0.322}
{"sequence": "GATGATTGTTCTCCCAGCTGATGAATTTTTGTTGTCGAGTAAACAAATTTTCCTAATCTTTCTGTTCAAGCGCCATCTAC", "binding signal (RPM ratio (pull-down/input))": 3.24}
{"sequence": "GATGATTGTTCTCCCAGCTGATGAATTCGCAGAATCGAGTAAACAAATTTTCCTAATCTTTCTGTTCAAGCGCCATCTAC", "binding signal (RPM ratio (pull-down/input))": 0.208}
{"sequence": "GATGATTGTTCTCCCAGCTGATGAATTGACTAAGTCGAGTAAACAAATTTTCCTAATCTTTCTGTTCAAGCGCCATCTAC", "binding signal (RPM ratio (pull-down/input))": 0.218}
{"sequence": "GATGATTGTTCTCCCAGCTGATGAATTTCGTGATTCGAGTAAACAAATTTTCCTAATCTTTCTGTTCAAGCGCCATCTAC", "binding signal (RPM ratio (pull-down/input))": 0.932}
{"sequence": "GATGATTGTTCTCCCAGCTGATGAATTACCTGGATCGAGTAAACAAATTTTCCTAATCTTTCTGTTCAAGCGCCATCTAC", "binding signal (RPM ratio (pull-down/input))": 0.195}
{"sequence": "GATGATTGTTCTCCCAGCTGATGAATTGGGGCACTCGAGTAAACAAATTTTCCTAATCTTTCTGTTCAAGCGCCATCTAC", "binding signal (RPM ratio (pull-down/input))": 0.454}
{"sequence": "GATGATTGTTCTCCCAGCTGATGAATTTGTCCCCTCGAGTAAACAAATTTTCCTAATCTTTCTGTTCAAGCGCCATCTAC", "binding signal (RPM ratio (pull-down/input))": 3.08}
{"sequence": "GATGATTGTTCTCCCAGCTGATGAATTATGAACATCGAGTAAACAAATTTTCCTAATCTTTCTGTTCAAGCGCCATCTAC", "binding signal (RPM ratio (pull-down/input))": 0.545}
{"sequence": "GATGATTGTTCTCCCAGCTGATGAATTTCAAAGTTCGAGTAAACAAATTTTCCTAATCTTTCTGTTCAAGCGCCATCTAC", "binding signal (RPM ratio (pull-down/input))": 0.182}
{"sequence": "GATGATTGTTCTCCCAGCTGATGAATTATGTCTCTCGAGTAAACAAATTTTCCTAATCTTTCTGTTCAAGCGCCATCTAC", "binding signal (RPM ratio (pull-down/input))": 2}
{"sequence": "GATGATTGTTCTCCCAGCTGATGAATTCCGAACTTCGAGTAAACAAATTTTCCTAATCTTTCTGTTCAAGCGCCATCTAC", "binding signal (RPM ratio (pull-down/input))": 0.253}
{"sequence": "GATGATTGTTCTCCCAGCTGATGAATTTCAGTGATCGAGTAAACAAATTTTCCTAATCTTTCTGTTCAAGCGCCATCTAC", "binding signal (RPM ratio (pull-down/input))": 0.453}
{"sequence": "GATGATTGTTCTCCCAGCTGATGAATTTGCTGCATCGAGTAAACAAATTTTCCTAATCTTTCTGTTCAAGCGCCATCTAC", "binding signal (RPM ratio (pull-down/input))": 2.1}
{"sequence": "GATGATTGTTCTCCCAGCTGATGAATTTATTAATTCGAGTAAACAAATTTTCCTAATCTTTCTGTTCAAGCGCCATCTAC", "binding signal (RPM ratio (pull-down/input))": 1.22}
